Data published in PubChem BioAssay AID463173 (ICCB-Longwood Screening Facility, Harvard Medical School, 2010).
Screen size: about 52,000 compounds; about 1,700 (3.3%) were called active. Cut-off read from the data, not from the text of the source: active = survival mostly below about 52% (no sharp cut-off); inactive = mostly above about 56%. The list shows a part of the results.

These compounds were tested on Wild type (assay: growth inhibition of S. aureus wild type versus tarO mutant, primary screen, teichoic acid synthesis inhibitors, RN4220, OD600 (AID 463173)). Conditions: S. aureus RN4220 wild type/DeltatarO growth, OD600, 18 h, hits give low values, screened at 18.75 µg/mL (by protocol).

**Q.** `COC(=O)c1ccc(-c2ccc(/C=N/NC(=O)CC3(C)OCCCO3)o2)cc1` was tested. Which survival did it give?
**A.** inactive: 109%

**Q.** Which survival does the source give for `CCOC(=O)c1cc(S(=O)(=O)Nc2ccc(OC)c(Cl)c2)[nH]n1` here?
**A.** active: -6%

**Q.** For `CCOC(=O)C1(C)C=C(Nc2ccc(C(N)=O)cc2)C(=O)N1c1ccccc1` (centres undefined), which survival is on record?
**A.** inactive: 68%

**Q.** With `COc1ccc2c(Sc3ccccc3)c(C(=O)NCc3cccc(OC)c3OC)[nH]c2c1` as the compound, how does the survival read?
**A.** inactive: 89%

**Q.** How did the survival turn out when `CCOc1ccc(CCNC(=O)CCCc2nnc3n(CC(C)C)c(=O)c4sccc4n23)cc1` was run?
**A.** inactive: 89%

**Q.** For `CC(C)OCCCn1c(SCc2cccc(Br)c2)nc2c(sc3ccccc32)c1=O`, which survival is on record?
**A.** inactive: 85%

**Q.** For `CN1C(=O)Cc2cc(S(=O)(=O)CCC(=O)Nc3cccc(C(F)(F)F)c3)ccc21`, which survival is on record?
**A.** inactive: 82%

**Q.** How did the survival turn out when `CC(=O)N1c2ccc(S(=O)(=O)NCC3CCC(C(=O)NCCC(C)C)CC3)cc2CC1C` (centres undefined) was run?
**A.** inactive: 109%

**Q.** Which survival does the source give for `O=S(=O)(NCc1ccc2c(c1)OCO2)c1ccc(S(=O)(=O)NC2CCCCC2)cc1` here?
**A.** inactive: 104%

**Q.** With `Cc1ccc(OC(=O)c2cc(-c3ccccc3)nc3ccc(C)cc23)cc1` as the compound, how does the survival read?
**A.** inactive: 61%

**Q.** `COCCNC(=O)c1ccc2c(c1)N(Cc1cccc(Cl)c1)C(=O)c1ccccc1S2(=O)=O` was tested. Which survival did it give?
**A.** inactive: 81%

**Q.** Which survival does the source give for `COc1ccccc1Oc1nc2c(c(=O)n(C)c(=O)n2C)n1Cc1cccc(Br)c1` here?
**A.** inactive: 78%

**Q.** For `CCOC(=O)N1CC=C2C(C#N)=C(N)C(C#N)(C#N)C(CC)C2C1` (centres undefined), which survival is on record?
**A.** inactive: 109%

**Q.** For `CC(=O)Nc1ccc(S(=O)(=O)Nc2cccc(-c3ccc(N4CCC(C)CC4)nn3)c2)cc1`, which survival is on record?
**A.** inactive: 111%

**Q.** How did the survival turn out when `CCOC(=O)C1CCN(C(=O)c2ccc3c(c2)sc2nc(-c4ccccc4)cn23)CC1` was run?
**A.** inactive: 42%

**Q.** For `CCSc1nnc(C2CCCN(C(=O)C3CCC(OC)CC3)C2)n1C` (centres undefined), which survival is on record?
**A.** inactive: 126%

**Q.** With `COc1cccc(CNC(=O)C2Cc3cc(S(=O)(=O)N4CCCCCC4)ccc3N2C(C)=O)c1` (centres undefined) as the compound, how does the survival read?
**A.** inactive: 99%

**Q.** `COc1ccc(CC(=O)NCc2ccc3c(c2)CCN3C(C)=O)cc1OC` was tested. Which survival did it give?
**A.** inactive: 78%

**Q.** For `CCN(CC)S(=O)(=O)c1ccc2c(c1)c(=O)c(C(=O)NCc1ccc(Cl)cc1)cn2C`, which survival is on record?
**A.** inactive: 73%

**Q.** For `Nc1c(C(=O)Nc2ccc(Cl)c(C(F)(F)F)c2)sc2nc(-c3ccncc3)ccc12`, which survival is on record?
**A.** inactive: 79%

**Q.** Which survival does the source give for `Cc1c(C(=O)N(C)C)sc2c1c(=O)n(-c1ccc(F)cc1)c(=O)n2Cc1cc(=O)n2ccccc2n1` here?
**A.** inactive: 128%

**Q.** `COc1cccc(CN(Cc2ccc3c(c2)OCO3)S(=O)(=O)c2ccc(-n3cnnn3)cc2)c1` was tested. Which survival did it give?
**A.** inactive: 121%

**Q.** How did the survival turn out when `CN(C(=O)CCc1ccccc1)c1nnc(-c2ccncc2)s1` was run?
**A.** inactive: 104%

**Q.** `CCC(=O)N1CCc2cc(Br)cc(S(=O)(=O)N3CCCC(C(=O)NCc4cccc(OC)c4)C3)c21` (centres undefined) was tested. Which survival did it give?
**A.** inactive: 133%

**Q.** For `Cc1nc2c(-c3ccccc3)c(C)nn2c(C)c1CCC(=O)N1CCN(c2ccccc2)CC1`, which survival is on record?
**A.** inactive: 74%

**Q.** `CC(=O)N1CCCc2ccc(NS(=O)(=O)c3ccc(C)c(C)c3)cc21` was tested. Which survival did it give?
**A.** inactive: 73%

**Q.** For `COc1ccc(C(=O)COC(=O)c2cc(-c3ccccc3)nc3c(C)cccc23)cc1`, which survival is on record?
**A.** inactive: 76%

**Q.** For `Cc1ccc(Cc2nc3ccccc3nc2SCC(=O)N2CCN(c3ccccc3F)CC2)cc1`, which survival is on record?
**A.** inactive: 22%

**Q.** `O=C1CCc2cc(S(=O)(=O)NCc3ccc(F)cc3)cc3c2N1CC3` was tested. Which survival did it give?
**A.** inactive: 72%

**Q.** Which survival does the source give for `CCc1cc2c(cc3c(=O)n(CC(=O)N4CCC(C)CC4)nc(CC)n32)s1` here?
**A.** inactive: 69%

**Q.** `CCCS(=O)(=O)c1ncc(Cl)c(C(=O)Nc2c(C(=O)c3ccccc3)oc3ccccc23)n1` was tested. Which survival did it give?
**A.** inactive: 120%

**Q.** For `CCCCCn1c(NCc2ccccc2OC)nc2ccccc21`, which survival is on record?
**A.** active: -5%

**Q.** With `Cn1nc(C(=O)N2CCN(c3cccc(Cl)c3)CC2)c2c1-c1ccccc1S(=O)(=O)C2` as the compound, how does the survival read?
**A.** inactive: 46%

**Q.** For `O=C(Nc1ccccc1)Nc1nncs1`, which survival is on record?
**A.** inactive: 108%

**Q.** How did the survival turn out when `CCS(=O)(=O)N1CCc2cc(C(=O)Nc3ccc(C)c(Cl)c3)ccc21` was run?
**A.** inactive: 102%

**Q.** `CCCCOc1ccc(C(=O)NCC2(N3CCN(C)CC3)CCCCC2)cc1` was tested. Which survival did it give?
**A.** inactive: 87%

**Q.** Which survival does the source give for `O=C(Nc1nnc(S(=O)(=O)N2CCOCC2)s1)c1cccc(F)c1` here?
**A.** inactive: 78%

**Q.** Which survival does the source give for `CCc1ccc(-n2c(=O)c3ccc(C(=O)NCCc4ccccc4)cc3n(CC(N)=O)c2=O)cc1` here?
**A.** inactive: 81%

**Q.** For `CC(=O)c1cccc(NC(=O)C(Cc2ccccc2)NS(=O)(=O)c2ccc(Br)s2)c1` (centres undefined), which survival is on record?
**A.** inactive: 136%

**Q.** How did the survival turn out when `O=C(Nc1ccc(Cl)cc1)N1CCC(CN2CCCC2)CC1` was run?
**A.** inactive: 66%

**Q.** For `Cc1ccc2c(c1)C(c1ccccc1)N(C(=O)c1ccc(OC(C)C)cc1)CC(=O)N2` (centres undefined), which survival is on record?
**A.** inactive: 67%

**Q.** Which survival does the source give for `Cc1cccc(CCNC(=O)Cn2ncc3c(=O)oc4ccccc4c32)c1` here?
**A.** inactive: 76%

**Q.** Which survival does the source give for `Cc1c2cnn(-c3ccccc3)c(=O)c2c(C)n1CC(=O)NCc1ccccc1Br` here?
**A.** inactive: 76%

**Q.** For `CCOC(=O)C1CCN(c2nc(-c3ccc(Br)cc3)nc3ccccc23)CC1`, which survival is on record?
**A.** inactive: 75%

**Q.** With `COc1ccc(OC)c(NC(=O)c2cn3c4c(ccc(Cl)c4c2=O)OC(C)C3)c1` (centres undefined) as the compound, how does the survival read?
**A.** inactive: 82%

**Q.** `COc1ccc(Cn2cc(C(=O)c3ccc(OC)cc3)c(=O)c3cc4c(cc32)OCCO4)cc1` was tested. Which survival did it give?
**A.** inactive: 91%

**Q.** Which survival does the source give for `Cc1ccc(C)c(N2CCN(C(=O)CCCn3ncn4c(cc5occc54)c3=O)CC2)c1` here?
**A.** inactive: 85%

**Q.** Which survival does the source give for `COc1ccc(C(=O)Nc2ccc(-c3cc4ccccc4oc3=O)c(C)c2)cc1Br` here?
**A.** inactive: 117%

**Q.** For `COc1cccc(CNC(=O)CCS(=O)(=O)c2cc3c(cc2C)NC(=O)CO3)c1`, which survival is on record?
**A.** inactive: 90%

**Q.** How did the survival turn out when `CCc1ccc(-n2c(=O)c3c(C)c(C(=O)N(C)C)sc3n(Cc3cccc(C)c3)c2=O)cc1` was run?
**A.** inactive: 80%

**Q.** For `CCOc1ccc(CNC(=O)CCn2nc(C)c3c(C)n(-c4ccccc4)nc3c2=O)cc1`, which survival is on record?
**A.** inactive: 129%

**Q.** With `CCN(CCCNC(=O)c1nn(-c2ccc(C)cc2)c(=O)c2c1c1ccccc1n2C)c1ccccc1` as the compound, how does the survival read?
**A.** inactive: 82%

**Q.** How did the survival turn out when `CN(C)c1ccc(CNC(=O)CCCN2C(=O)CCn3nc(-c4cccn4C)cc32)cc1` was run?
**A.** inactive: 69%

**Q.** Which survival does the source give for `Oc1ccccc1-c1nc(/C=C/c2ccccc2Cl)no1` here?
**A.** inactive: 81%
